# Measurements published in the supplement of paper PMC11417369.
# ± gives the standard deviation of the averaged measurements. Some of the results follow.
# Tested on: PfAP2-LT AP2 domain (GST-tagged)
# Test: gcPBM binding intensity (ln(normalized median fluorescence intensity)); higher = stronger DNA binding
# Method in brief: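 Using an Agilent 4 × 180k array, primer-extended double-stranded 36-bp intergenic genomic probes and negative controls were exposed for 1 h to GST-fused P. falciparum DNA-binding domains expressed in E. coli. Binding was carried out in 1× PBS with 1% milk, 0.2 mg/ml BSA, 0.5% salmon testes DNA and 0.03% Triton X-100, and protein was detected with Alexa488 anti-GST antibody and a 488 nm scan. Binding intensity is the highest Masliner-normalised natural-log median intensity across replicate spots of either probe orientation.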
row,Sequence,gcPBM binding intensity (ln)
1,TAACAAATATTATTTTGTACATAATATATATATATA [XGTACX_site6898],8.6 ± 0.32
2,TTATAAAAATATTACGCACACACAAACTTATTCATT [CACACA_site1970],9.37 ± 0.24
3,ATATATTTATATTATACACACAAAAATATTTTGTAT [CACACA_site6262],8.93 ± 0.42
4,TATATATATTAATTTATTTATTTGTTTATTTATTTA [CACACA_negctrl_site185],8.52 ± 0.49
5,AAGAATTATAGAAACACACATACATACAGACATACA [CACACA_site1943],9.3 ± 0.41
6,TAATTACCATATGGTACACACATATATATCTGTATA [CACACA_site5849],9.31 ± 0.33
7,AAGAAGAGTTATTGTAGTACATTTTTAAATGTAATA [XGTACX_site7664],8.63 ± 0.54
8,AATAATATCTGAAAATGTACATTTTATTATAAACAT [XGTACX_site8441],8.86 ± 0.45
9,AGTTAAATGAATCAATACATAAATATGTATATATAT [TGCATGCA_negctrl_site539],8.7 ± 0.44
10,TGAATCAATTGTTGCTGTACATAAGGTATACAATAA [XGTACX_site5127],8.72 ± 0.45
11,TTTTTTTAATAAATTTATAACAATATGATAGGTGAC [CACACA_negctrl_site1783],8.34 ± 0.45
12,TATTTGGGTATTTTTACACACATTAATATATATATA [CACACA_site9114],8.89 ± 0.4
13,ATAATGGAAAAAAAATATAATAATACGAAATAGGAA [TGCATGCA_negctrl_site64],8.91 ± 0.55
14,AAAGATAATAATATGCGTACATAAAAATATATGATA [XGTACX_site6884],8.86 ± 0.53
15,TATTTGTGAAGAAATTGTACTCATATCTACATTTAT [XGTACX_site2245],8.75 ± 0.45
16,TCTTTGTATATATGTTCATTTGTAATATATATTCAT [TGCATGCA_negctrl_site467],8.96 ± 0.39
17,ATAATAATATAAAAATGTACATATATTTATAATTGT [XGTACX_site3429],8.78 ± 0.45
18,CCCAGGAATATAAAATGTACATAAAAAATACAAATT [XGTACX_site1708],9.07 ± 0.42
19,ATTTTATTTTTTCACACACACATATATATATATATA [CACACA_site3334],9.54 ± 0.23
20,AGTACATTATAGAATACACACCTATACATTTATATA [CACACA_site6391],8.94 ± 0.36
21,TAAGCACAAGCACAAGCACACATTTATATATATATA [CACACA_site883],9.465 ± 0.021
22,TTTTTTTTTTTTGGATGTACTTAATGAAAATGTTAC [XGTACX_site8980],8.46 ± 0.45

row,Sequence,gcPBM binding intensity (ln)
1,CCTCATATTATAGACACACACAAAAAAAATAAAAAA [CACACA_site180],9.16 ± 0.56
2,AATATAATATATATTAGTACATATATATATATATAT [XGTACX_site870],9.14 ± 0.4
3,TCATTATTATATAATTGTACATAATAATTATATCCA [XGTACX_site1801],8.53 ± 0.47
4,ATGTATGTGTATATATGTACATAATATATATCTTTT [XGTACX_site8666],8.98 ± 0.38
5,ATGCAAACTAAAAGACGTACAGAAAAGTATCATACT [XGTACX_site8766],9.02 ± 0.42
6,TGATTATTTTATATTTGTACACATATCATATAAAAA [XGTACX_site5868],8.53 ± 0.47
7,ACATAATATTGAAGAAGTACAAATTTTATTTATTAT [XGTACX_site4113],8.6 ± 0.47
8,ACGTTTTTGAGTAGTACACACACAATAAGGATGGAT [CACACA_site9044],9.27 ± 0.35
9,ATTATTATGTATTGCCGTACACATATTATCACAGAA [XGTACX_site3740],8.79 ± 0.46
10,TATTATAATTAATATACACACGCTTATATATATATA [CACACA_site75],8.99 ± 0.16
11,TCTTCATATATAATTGTACACACAAAAACGACATTG [CACACA_site8645],8.98 ± 0.38
12,TATAAATAAACATTTACACACTCTTATAATAAATAT [CACACA_site1679],8.62 ± 0.39
13,ACATGTACAGAAATTTATATATATATATATATATAT [CACACA_negctrl_site1584],9.9 ± 0.32
14,GGAACCATCCAAAAAAAAAAAAAAAATAATAATAAT [CACACA_negctrl_site383],8.5 ± 0.58
15,TTATCATTTTTGGAATGTACTTACATTAAATATTTA [XGTACX_site4034],8.49 ± 0.52
16,TATATGCAAAATGTCACACATGTGATAAATACATAT [CACACA_site4302],9.52 ± 0.27
17,AACTAATAGTATATTACATGCAAAAGTAAAAGTAAA [TGCATGCA_site411],9.02 ± 0.44
18,GTTGAAATAAAATTAGTGCATATATAAATATATATA,8.63 ± 0.47
19,CTCACAATACTTACATGTACATATTATATATATAAA [XGTACX_site1880],8.94 ± 0.39
20,TCATTCTTGTGTTTATGTACACATATTTATATTGTA [XGTACX_site710],9.07 ± 0.52
21,ACTGAAAAAAGAAATACACACATTCTGGATCAGATA [CACACA_site7760],9.04 ± 0.49
22,TTTATGTGTTATAAATGTACATAATATAATTCGTAT [XGTACX_site3845],8.66 ± 0.4

row,Sequence,gcPBM binding intensity (ln)
1,TTTTTTTTATTTTGTTGTACGCTTATTTGTATATAT [XGTACX_site7325],9.02 ± 0.45
2,TTATCTATAAATACGAGTACGCAAAATCATATAATA [XGTACX_site2447],8.71 ± 0.32
3,ATTTACGCGCTTATTACACACACATACAAATAAGGA [CACACA_site9157],9.34 ± 0.3
4,TTTTAATATTAAGATGTCTTTTACGTTTATTTTGTA [CACACA_negctrl_site765],8.68 ± 0.52
5,TAATTATTTGCCCTTACTCTGAACATTCGGAATTTA [CACACA_negctrl_site1278],8.63 ± 0.47
6,ATCTGCATATATATATGTACATATTTTAGAATGCAC [XGTACX_site708],8.87 ± 0.34
7,TTCTTTTTAAATTACACACACATATAAATATGTATA [CACACA_site7618],9.13 ± 0.37
8,TTTTTATAAAATTTTATGAGCTCGGAAAAAATAAAC [GTGCAC_negctrl_site637],8.38 ± 0.45
9,TATATATAATATATATATATGGAAATTCTTTTAAAT [XGTACX_negctrl_site50],8.41 ± 0.38
10,TGTATTATATGTAAATGTACATTTAATATTTTATAT [XGTACX_site4461],8.79 ± 0.45
11,GTATGAAATTATAATAGTACATATAAATAAAAAAAA [XGTACX_site8955],8.86 ± 0.54
12,CCACAAGTATATAGTAGTACAATTTTTTTCTCTTTA [XGTACX_site4403],8.58 ± 0.47
13,ATATAAGGATAACCTAGTACATATTATATGAAACAA [XGTACX_site8459],8.92 ± 0.45
14,TACGGTAAATAGTGTTGTACGATACAATTGTTTTCT [XGTACX_site8118],8.9 ± 0.3
15,AAAATAAATAAATAAATATATATATATATATATATA [TGCATGCA_negctrl_site558],9.46 ± 0.26
16,CAATTAAAATGCAACGGTACACATAAAAAAAATAAA [XGTACX_site6216],9.04 ± 0.52
17,AAGGGGAAAAAAAAAAGTACACAAACATAGGATAAT [XGTACX_site377],8.99 ± 0.56
18,TATATATATATATATGTGCGCATTACTTTAAGAATA,9.6 ± 0.25
19,TTACAAATAATTTGTTGTACGCTTTTTTTCTTTTTT [XGTACX_site7199],8.79 ± 0.57
20,GTTAAAAAAAGGAGAGATCTCACACAAATATATATA [GTGCAC_negctrl_site117],8.83 ± 0.44
21,CATTTAATAATAACAAGTACACAAAGATGTATAACA [XGTACX_site8315],8.83 ± 0.49
22,ATGATAAATATAAGTTGTACATATATCTATGTGCAT [XGTACX_site6010],8.8 ± 0.39

row,Sequence,gcPBM binding intensity (ln)
1,CATAAATACTATATATGTACGTAATTTTTAAAACAT [XGTACX_site7710],8.78 ± 0.48
2,AATATATATGAAAAAAGTACTCAAGGAATAAAAAAA [XGTACX_site7720],8.82 ± 0.52
3,GGGTGCCAAATTAGCACACACATATATACCTGAATT [CACACA_site5551],9.38 ± 0.47
4,GTAGGCATTAAAAAATGTACAAAATATTATGAATTG [XGTACX_site1615],8.8 ± 0.54
5,TTTTTTTTTATTTGTTGTACGAGGTTTTAAAATTTT [XGTACX_site106],8.64 ± 0.45
6,TATAATATTCTATATGCATGTACACCATTCTTTATT [TGCATGCA_site688],9.15 ± 0.45
7,TATTGTTATCTTTTATGTACTTAAAAAAATAAATTT [XGTACX_site4233],8.26 ± 0.43
8,TAATAAAACATATATACACACATTATATATACATAT [CACACA_site8495],9.01 ± 0.4
9,AAAAAGGTTATTGGTACACACATATGTATATAAATA [CACACA_site6402],9.09 ± 0.53
10,TCTGTTCTTTTTTAATGTACAAGAAATATAAAATTC [XGTACX_site3600],8.26 ± 0.45
11,AATTTTTAGTATATAACATAAAATAAAATAAAATAA [GTGCAC_negctrl_site696],8.38 ± 0.54
12,AATTATAAATCTTGCACACAAAAAAAATAATAAAAA [CACACA_site2434],9.03 ± 0.52
13,TAATAAATAATGGTTACACACAAAATATAAAACTTA [CACACA_site3544],8.89 ± 0.57
14,AAATCTTTGTGTGGATGTACTTTTATAAAAAAGAAT [XGTACX_site3830],8.7 ± 0.46
15,TAAACACATATATAGACATGCAACTAGTTTTTATAA [TGCATGCA_site474],8.77 ± 0.33
16,AAAAAGGAAATAATAACACACATTAATAATTATAAA [CACACA_site3401],8.92 ± 0.48
17,TAAAAAGTTATATTCACACACATACACATATAAATA [CACACA_site6398],9.24 ± 0.26
18,TTATTTTTTTTTTTTTGTACACAATTTGACACATTA [XGTACX_site7983],8.73 ± 0.49
19,TTTATTTAATTATGTTGTACATGTAGGATTTATTTT [XGTACX_site7078],8.69 ± 0.52
20,ATAAATAAAACAAATAGTACAATATAAAAAAAAAGG [XGTACX_site87],9.02 ± 0.52
21,TATACAGATATATATACACACATATATATAAATACA [CACACA_site4383],9.24 ± 0.39
22,AAGAGGATACACAATGTGCACTTTTTTTTTTTTTTT [GTGCAC_site9415],8.91 ± 0.42
